# Publication PMC10668032
# The list shows a part of the results. At the low end of the ranking, values are background and their order means little.
# Molecular target: SIX1-Q177R homeodomain (UniProt Q15475)
# Assay: universal protein binding microarray
# Details: Universal all-10-mer PBM (8x60K, AMADID 030236), 300 nM GST-tagged protein, Alexa Fluor 488 anti-GST; buffer, salt, pH and temperature not stated; high values mean tight binding; most listed sequences are background and not binding sites; double strand, one strand shown
row,Sequence,binding signal [E-score]
1,CGGGTACA,0.28
2,ACCTCTGA,0.131
3,ATACCGGA,0.178
4,AACTCAGG,-0.106
5,CTACATCC,-0.152
6,GCTTAAGA,-0.303
7,GATAACCA,-0.204
8,ACTAACGC,0.107
9,CAGAGGGA,-0.0529
10,CCCCAAGA,0.156
11,GTCGCAGA,-0.0975
12,CTACGCCC,0.0405
13,AAAAATAC,-0.157
14,CGGGTCAG,0.066
15,AGGTTGCA,0.0461
16,CGCTGGCC,-0.0056
17,AATTAGAT,-0.184
18,GCGCCGGA,0.00295
19,AAGATAAT,-0.111
20,AATGCCCG,-0.0695
21,AGAGTGCA,0.0756
22,GGAATGCC,-0.189

row,Sequence,binding signal [E-score]
1,GTCCGTAA,0.103
2,GTAACCTA,-0.0889
3,TAGGGTCA,0.0995
4,GATCTGTA,-0.116
5,CCCCGGGG,0.149
6,CTCCATTA,0.0347
7,AACAATTA,-0.169
8,CCTGCACA,0.0692
9,ATTCTCCC,0.0841
10,CGCAGGAG,0.00546
11,ACTCTTAC,0.0596
12,GGCTCTTA,-0.166
13,ACGGGTTG,0.0529
14,ACTTCACA,0.107
15,AGTAGAGC,0.0505
16,CGCAGATA,-0.0204
17,ACGTTCGA,-0.0846
18,CATTACAC,0.452
19,GCTTAGAA,-0.141
20,CCAACTTC,-0.131
21,GGTATACA,0.269
22,CTTTTCAC,-0.0851

row,Sequence,binding signal [E-score]
1,CTAAAAGC,-0.219
2,ACTTTGTG,0.0232
3,AGGTTGTG,-0.0166
4,CAGTTAGG,0.0169
5,ACGGTACT,-0.00834
6,GCACAGCA,-0.18
7,CAGAGCTA,-0.216
8,ACACAACC,0.219
9,AGTGATAC,0.265
10,ATCCCGGC,-0.00965
11,AGCATATC,-0.103
12,GAGTCTCC,-0.0955
13,CACCTTGC,0.258
14,GTACTTGA,0.0461
15,GGGTCGGA,0.227
16,CAACTAAG,-0.218
17,AGGTAAAC,-0.00181
18,AAGTTCCG,-0.186
19,GGAGATGA,0.037
20,ACTAAAGA,0.0411
21,CACAGTAA,-0.192
22,CCTTCGAA,0.0216

row,Sequence,binding signal [E-score]
1,CCTTTGCG,0.0933
2,GGGCGCCC,-0.108
3,CAGACTAA,-0.189
4,CGATACGC,0.0597
5,GCCACGCA,-0.1
6,ATATGGTC,-0.0787
7,AAAAGGAT,0.0452
8,AACTGCGA,-0.172
9,AGCGCAAC,-0.18
10,ATATTGGG,0.115
11,AGCTCGAT,-0.0248
12,AAGGTATC,0.251
13,CCTCCAGC,0.0334
14,GCTTTTAC,0.0428
15,TCGATCGA,0.078
16,CCGCTAAA,-0.125
17,CGTTTAAC,-0.173
18,ATTTCCCA,-0.047
19,ACGCCCAG,0.192
20,ATGGTAAC,0.12
